# Reference: PubChem BioAssay AID1345083 (National Center for Advancing Translational Sciences (NCATS), 2018)
# Several values for one entry are separate records, joined by “and”; a condition that tells them apart may be missing. Identical values can stand only once. Screen size: about 94,000 compounds; about 6,200 (6.6%) were called active. The inconclusive results got no clear call from the source; some entries with a clear call stand among them for comparison. The call rests on the fitted dose curve; in most records, active means well fitted inhibition curve with a large enough effect; inconclusive means small, poorly fitted or top-dose-only effect; inactive means flat fitted curve, though single readings scatter. Where the call is inconclusive, the potency comes from a doubtful curve fit.
# Test: Cytotoxic Profiling in HEK 293 Cell Line of Diverse Libraries Using Quantitative High-Throughput Screening; further: nearly all actives have a fitted effect of over 60% in size
# Settings: HEK 293 viability, ATP luminescence (CellTiter-Glo), 48-72 h; series mostly up to 115 µM
# In short: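 HEK 293 cells at 250 cells/well were exposed to compounds by pintool transfer for 48 or 72 hr at 37 degree Celsius, 5% CO2. Viability was read as ATP-coupled luminescence with CellTiter-Glo after 10 min at room temperature.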
# Potency means the concentration at half of the fitted maximal effect; tags describe the fitted curve by direction and shape.
row,SMILES,Potency
1,Cc1ccc(C)c(CN2CCn3c(nn(CC4COc5ccccc5O4)c3=O)C2=O)c1 (stereo unspecified),"inconclusive: 56.2 µM [inhibitor, partial curve, poor fit]"
2,COC(=O)c1ccc2c(c1)nc1n2[C@@H](CNCc2ccccc2)COC1,"inconclusive: 56.2 µM [inhibitor, partial curve]"
3,Cc1ccc(NS(=O)(=O)c2ccccc2)c(=O)n1CC(=O)N(C)Cc1ccccc1,"inconclusive: 50.1 µM [inhibitor, partial curve, poor fit]"
4,COCCn1c(C)nnc1-c1cc(-c2ccccc2Oc2ccccc2)ccn1,"inconclusive: 100 µM [inhibitor, partial curve]"
5,CN1CC2CN(C(=O)NCc3ccc(F)cc3)CC(C1)O2,inactive
6,c1ccc(OCc2cc(CC3(NCc4cccc5c4OCO5)COC3)no2)cc1,"inconclusive: 100 µM [inhibitor, partial curve, poor fit]"
7,CCc1nc2c(c(-c3ccc(O)cc3)n1)CCN(C(=O)c1cccc(OC)c1)CC2,"inconclusive: 89.1 µM [inhibitor, partial curve, poor fit]"
8,COc1cc(Nc2nc(-c3cccc(OC)c3OC)no2)cc(OC)c1OC,"inconclusive: 50.1 µM [inhibitor, partial curve, poor fit]"
9,COc1ccc(NC(=O)O[C@@H]2CO[C@H]3[C@@H]2OC[C@@H]3NC(=S)Nc2ccc(Cl)cc2)cc1,active: 44.7 µM
10,COc1ccccc1-c1ccc(CN2CCCCC2C(=O)Nc2ccccc2F)cc1 (stereo unspecified),"inconclusive: 35.5 µM [inhibitor, partial curve, poor fit] and inconclusive: 79.4 µM [inhibitor, partial curve, poor fit]"
11,CCC(=O)N1Cc2ccccc2CC2(CCCCN2CC2CCOCC2)C1 (stereo unspecified),inactive
12,COc1cccc(CCn2ccnc2-c2cc3n(n2)CCCNC3)c1OC,inactive
13,Cc1cc2cc(-c3c(C)noc3C)nc(Nc3cccc(F)c3)c2o1,"inconclusive: 11.2 µM [inhibitor, full curve]"
14,COc1ccc(C(=O)N[C@H]2CO[C@H]3[C@@H]2OC[C@@H]3Nc2nccc(-c3cccs3)n2)cc1,"inconclusive: 79.4 µM [inhibitor, partial curve]"
15,Cn1cc(C(=O)N2CCCCCCNC(=O)[C@@H]3C[C@@H](c4nc(Cc5ccccc5)no4)C[C@@H]32)cn1,"inconclusive: 79.4 µM [inhibitor, partial curve, poor fit]"
16,CN1CC[C@H]2CN(C(=O)CCCCc3ccccc3)C[C@@]2(C(=O)O)C1,inactive
17,O=C(COc1ccccc1)N[C@H]1CO[C@H]2[C@@H]1OC[C@@H]2n1nnnc1Oc1ccc2c(c1)OCO2,inactive
18,Cc1nn2c(c1-c1ccccc1OCc1ccccc1)N(C(=O)C1CCOCC1)CCC2,"inconclusive: 89.1 µM [inhibitor, partial curve, poor fit]"
19,COc1ccc(OCC(=O)N2CCC3(CC2)N=C(c2ccc(C)cc2)NO3)cc1,"inconclusive: 89.1 µM [inhibitor, single point]"
20,CC1(C(=O)NCC2CC2)CCc2cnc(Nc3ccccc3)nc21 (stereo unspecified),active: 100 µM
21,O=C(Nc1cncnc1)C1CCCN1c1nc2ncccc2o1 (stereo unspecified),inactive

row,SMILES,Potency
1,Cc1ccc(C)c(C(=O)N[C@@H]2CN(c3ccncn3)C[C@H]2CO)c1,inactive
2,CC1CCC2(CC1)NC(=O)N(CC(=O)Nc1ccc(C(F)(F)F)cc1)C2=O (stereo unspecified),"inconclusive: 31.6 µM [inhibitor, partial curve, poor fit]"
3,COc1ccccc1C(=O)N[C@@H]1CN(C2CCOCC2)C[C@H]1CN(C)C,"inconclusive: 79.4 µM [inhibitor, partial curve, poor fit]"
4,Cc1ccc(NC(=O)c2ccc3nc(-c4ccccn4)oc3c2)cc1,"inconclusive: 89.1 µM [inhibitor, single point]"
5,O=C(c1cccc(Cl)c1)N1CCC2(C1)NC(=O)N(Cc1ccc(F)cc1)C2=O (stereo unspecified),"inconclusive: 56.2 µM [inhibitor, partial curve, poor fit]"
6,COc1ccc(-c2nn(-c3ccccc3C)cc2CN(C)Cc2cn(C)nc2C)cc1F,"inconclusive: 89.1 µM [inhibitor, single point]"
7,O=C(NC1CCCN(c2cc(N3CCCC3)ncn2)C1)c1ccccn1 (stereo unspecified),inactive
8,CC(=O)c1cccc(NC(=O)O[C@@H]2CO[C@H]3[C@@H]2OC[C@@H]3Nc2nccc(C3CCCC3)n2)c1,"inconclusive: 31.6 µM [inhibitor, partial curve, poor fit]"
9,COc1ccc(CC(=O)N2CCC(Cc3nc(-c4ccccc4)no3)CC2)cc1,active: 14.1 µM
10,Cc1cccnc1CN(C(=O)c1cc(COc2ccccc2)[nH]n1)C(C)C,"inconclusive: 50.1 µM [inhibitor, partial curve, poor fit]"
11,CCOc1ccc(NC(=O)N2CCc3cc(OC)c(OC)cc3C2CNC(=O)NC(C)(C)C)cc1 (stereo unspecified),"inconclusive: 89.1 µM [inhibitor, single point]"
12,O=C(NCc1cccc(Cl)c1)C1CN(C2CCCC2)C(=O)N1 (stereo unspecified),inactive
13,CCc1ccc(OCC(=O)c2ccc3c(c2)N(CCCC(=O)NCC2CCCO2)C(=O)CO3)cc1 (stereo unspecified),"inconclusive: 44.7 µM [inhibitor, partial curve]"
14,CCOc1ccccc1C(=O)N1CCN(c2cc(-c3cccs3)[nH]n2)CC1,active: 39.8 µM
15,NC(=O)[C@@H]1CN(C(=O)c2cncnc2)C[C@H]1COc1ccccc1,inactive
16,CCCN(C)c1nccnc1OC1CCN(C(=O)c2ccn[nH]2)C1 (stereo unspecified),"inconclusive: 100 µM [inhibitor, single point]"
17,O[C@@H]1C[C@@H](c2nc(Cc3ccc(F)cc3Cl)no2)N(Cc2cc3ccccc3o2)C1,"inconclusive: 126 µM [inhibitor, single point]"
18,CC(=O)NCc1nnc2n1C(C(=O)NCc1ccccn1)CC2 (stereo unspecified),inactive
19,COc1ccc(C(=O)N2CCC(N3C(=O)C(O)C34CCCCC4)CC2)cc1F (stereo unspecified),inactive
20,CC(=O)NC1(C)CCCN(Cc2cccc(Nc3ccccc3)c2)C1 (stereo unspecified),"inconclusive: 112 µM [inhibitor, partial curve]"
